# Experimental data reported in patent publication US10493061B2, “Compositions and methods comprising 2-(acylamino)imidazoles” (priority 2014, dated 2019).
# Experiments:
# [1] = test system: MCF-7, T47D, and MDA-MB-231 breast cancer cell lines; test: Cell viability (ATP quantification) with exogenously added transition metals; type: cell-based, human
# [2] = test system: MCF-10A normal mammary epithelial cell line; test: as above; conditions: 30 μM ZNA with Fe(III)Cl3, Fe(II)SO4, NiSO4, MnCl2 or CoCl2, 48 hours, compared to ZNA alone
# Experimental: Considering ZNA's ability to stimulate an increase in intracellular zinc and its effect on the transcription of metal trafficking genes, a study was next initiated to determine the effect of ZNA on cells treated in combination with exogenously added transition metals. Three breast cancer cell lines (MCF-7, T47D, and MDA-MB-231) and a normal mammary epithelial cell line (MCF-10A) were treated with 30 μM ZNA in conjunction with 30 M CuSO4, ZnSO4, Fe(III)Cl3, Fe(II)SO4, NiSO4, MnCl2, or CoCl2 for 48 hours; following the completion of treatment, cell viability was measured using an ATP quantification assay (FIG. 2A).
# [3] = test system: LC3 in MCF-7, T47D, and MDA-MB-231 cells; test: Western blot of autophagosome-associated protein LC3A/B; type: cell-based, human; conditions: for LC3 protein: 30 μM ZNA with 30 μM ZnSO4, 6 hours
# Experimental: Western blot analysis: For analysis of protein expression by Western blot analysis, the procedure set forth in Gligorich et al. was used. Gligorich K, Vaden R, Shelton D, Wang G, Matsen C, Looper R, et al. Development of a screen to identify selective small molecules active against patient-derived metastatic and chemoresistant breast cancer cells. Breast Cancer Res 2013; 15(4):R58. The cells were cultured and treated in 10-cm plates. Cells were harvested in cold radioimmunoprecipitation assay (RIPA) buffer (50 mM Tris-HCl, 150 mM NaCl, 0.1% sodium dodecyl sulfate (SDS), 0.5% sodium deoxycholate, and 1% Triton X-100) supplemented with protease and phosphatase inhibitors (Sigma). Protein concentration was measured using a BCA assay (Thermo Scientific) and […] of protein was resolved by gel electrophoresis using an SDS polyacrylamide gel. Protein was transferred to an Immobilon-FL PVDF membrane (Millipore, Billerica, Mass., USA) and the membrane was blocked for 1 hour at room temperature with Odyssey blocking buffer (Li—COR). The membrane was incubated with primary antibody diluted in Odyssey blocking buffer overnight at 4° C. then washed with tris-buffered saline. After incubation for 1 hour at room temperature with secondary antibodies diluted in Odyssey blocking buffer, the blot was imaged with the Odyssey Infrared Imaging System (LI-COR).
# Further cell death characterization studies were also conducted to establish the role of autophagy in ZNA-mediated cell death. To assess the level of autophagic induction following treatment with ZNA, levels of the autophagosome-associated protein LC3A/B were measured by western blot analysis. […] Kabeya et al. EMBO J 2000; 19(21):5720-28. […] Taking into consideration the rapid cell death induced by the combination of ZNA and ZnSO4, an earlier time point (6 hours) was chosen to assess LC3 levels for the combination treatment condition.
# [4] = test system: MCF-7, T47D, and MDA-MB-231 breast cancer cell lines; test: Dose response, luciferase-based ATP (ATPlite) viability assay; type: cell-based, human; conditions: five days of treatment
# [5] = test system: MCF-7, T47D, and MDA-MB-231 cells; test: Cellular proliferation, EdU incorporation assay
# Experimental: Measurement of cellular proliferation: Cells were seeded in six-well plates at densities such that wells would be approximately 80% confluent at the end of treatment. Cells were treated with drug diluted in low serum (2% FBS) media for the appropriate length of time then 5-ethynyl-2′-deoxyuridine (EdU, Life Technologies) was added directly to the media to achieve a final concentration of 10 M EdU; the cells were then incubated at 37° C. for 30 minutes. EdU incorporation and propidium iodide staining were assessed by flow cytometry following the manufacturer's protocol (Life Technologies) and analyzed as described in Gligorich et al.
# Upon finding that ZNA synergized strongly with exogenously added Zn^2+ to promote rapid and cancer-specific cell death, experiments were conducted to determine the effect of treatment on cellular proliferation and to characterize the cell death induced by the combinatorial treatment. First, a 5-ethynyl-2′-deoxyuridine (EdU) incorporation assay was utilized to assess the effects of ZNA and ZNA/ZnSO4 treatment on cellular proliferation. […]
# [6] = test system: MCF-7, T47D, and MDA-MB-231 cells; test: Cell death by propidium iodide staining and flow cytometry; type: cell-based, human; conditions: for cell death (propidium iodide): MCF-7 cells; for ZNA-induced cell death (propidium iodide): ZNA with chloroquine, 72 hours
# Experimental: Measurement of cell death by propidium iodide staining: Cells were cultured to 80% confluence in 6-well plates and the growth media was then replaced with low serum (2% FBS) drug-containing media. Each condition was assessed in triplicate. Following the completion of treatment, the media and floating cells were collected and combined with the trypsinized adherent cells. The cells were washed with 2% FBS/HBSS, and resuspended in a propidium iodide solution (Cell Signaling) for analysis by flow cytometry. The percentage of propidium iodide positive cells for each treatment condition were averaged and normalized to the vehicle-treated control. The normalized data were plotted as the average±standard error of three replicates.
# In order to validate the transition metal screen with a second cell viability assay, propidium iodide uptake was measured in four cell lines by flow cytometry following a 24-hour treatment with either 30 μM ZNA alone or in combination with 30 µM CuSO4 or 30 μM ZnSO4 (FIG. 2B).
# As such, MCF-7 cells were treated with 30 μM ZNA alone or in combination with ZnSO4 and/or the RIP1 inhibitor Necrostatin-1 for 24 hours; a positive control, the small molecule shikonin, was also included in the assay. Han W et al. Shikonin circumvents cancer drug resistance by induction of a necroptotic death. Mol Cancer Ther 2007; 6(5):1641-49. Cells were subsequently stained with propidium iodide and fluorescence was measured by flow cytometry to quantify cell death (FIG. 5A).
# Since autophagy can stimulate both pro-death and pro-survival pathways, experiments were next conducted to assess how autophagic inhibitors impacted ZNA's cell death profile. If autophagy contributes to ZNA-induced cell death, then an inhibitor of autophagic processes would be expected to reduce ZNA-promoted cell death. See Dalby et al., Autophagy 2010; 6(3):322-29. As such, cells were treated with ZNA in combination with chloroquine, an inhibitor of autophagosome function, and cell death was assessed by propidium iodide stain following 72 hours of treatment. Kimura et al. Cancer Res 2013; 73(1):3-7.
# [7] = test system: MCF-7, T47D, and MDA-MB-231 cells; test: Intracellular Zn^2+ by FluoZin-3 staining and flow cytometry; type: cell-based
# Experimental: Measurement of intracellular Zn^2+ by FluoZin-3 staining: Cells were seeded in 6-well plates at a density such that at the time of analysis, wells would be 70-80% confluent. Following the completion of treatment, the drug-containing media was removed and replaced with Hank's Balanced Salt Solution (HBSS, Life Technologies) containing 2.5 μM FluoZin-3. The cells were incubated with the indicator for 30 minutes at room temperature in the dark. After staining, the cells were trypsinized, resuspended in HBSS containing 2% FBS, and relative mean fluorescence was measured by flow cytometry (FACscan, BD Biosciences, San Jose, Calif., USA).
# In order to determine whether the transcriptional changes in metal trafficking genes were functionally relevant to ZNA's mechanism of action, intracellular Zn^2+ was quantified using the fluorescent indicator FluoZin-3 followed by flow cytometry analysis (FIG. 1G).
# To better understand the cancer-selective synergism observed between ZNA and Zn^2+, an experiment was conducted to measure intracellular Zn^2+ using the fluorescent Zn^2+ indicator FluoZin-3.
# [8] = test system: MCF-10A, MCF-7, T47D, and MDA-MB-231 cells; test: Oxidative stress, H2DCFDA (DCF) oxidation by flow cytometry; type: cell-based, human
# Experimental: Measurement of oxidative stress: Oxidative stress induced by drug treatment was assessed by measuring the oxidation of 2′,7′-dichlorodihydrofluorescein diacetate (H2DCFDA). Briefly, cells were seeded in 6-well plates and treated with drug diluted in low serum (2% FBS) media for the appropriate length of time. The media was then replaced with HBSS containing 30 μM H2DCFDA and the plates incubated at room temperature for 30 minutes. Cells were then trypsinized, washed with 2% FBS/HBSS, and resuspended in 2% FBS/HBSS for analysis by flow cytometry. The relative mean fluorescence for each condition was normalized to the corresponding vehicle-treated control and the values were then plotted as an average±standard error.
# Further probing the caspase independent cell death induced by ZNA, experiments were next conducted to characterize the extent of oxidative stress during the cell death process. […] The decreased levels of H2DCFDA oxidation observed with ZNA and ZnSO4 combinatorial treatment are consistent with literature reports detailing a connection between increased intracellular Zn^2+ and decreased oxidative stress. E.g., Ho E, Ames B N, Proc Natl Acad Sci USA 2002; 99(26): 16770-75. Attempts to inhibit this increase with the antioxidant N-acetylcysteine (NAC) were successful only with T47D cells; however, a concomitant decrease in cell death was not observed (FIG. 9). […]
# [9] = test system: caspase 3/7, 8 and 9 activities in MCF-10A, T47D, and MDA-MB-231 cells; test: Caspase-Glo assay; type: cell-based, human
# Experimental: Measurement of caspase activity: Caspase 3/7, 8, and 9 activities were measured using Promega (Madison, Wis., USA) Caspase-Glo assays. Briefly, cells were seeded in 96-well white-bottom, white-wall plates at a density such that at the time of analysis wells would be 80% confluent.
# In order to establish whether ZNA-treated cells undergo apoptosis, caspase 3/7, 8 and 9 activities were measured using a luciferase-based Caspase-Glo assay. […] Jänicke R U, Sprengart M L, Wati M R, Porter A G. Caspase-3 Is Required for DNA Fragmentation and Morphological Changes Associated with Apoptosis. J Biol Chem 1998; 273(16):9357-60. Caspase activity was then measured for each condition and normalized to the vehicle-treated control (FIG. 4B).
smiles,measurement,setting,value
"COc1ccc(-c2c(Cc3ccccc3)[nH]/c(=N\C(=O)c3ccccc3F)n2C)cc1 [ZNA, (E)-N-(4-benzyl-5-(4-methoxyphenyl)-1-methyl-1H-imidazol-2(3H)-ylidene)-2-fluorobenzamide]",cell viability,"[1]; 30 μM ZNA with CuSO4, 48 hours",significant reduction in cell viability
same,cell viability,"[1]; 30 μM ZNA with Fe(III)Cl3, Fe(II)SO4, NiSO4, MnCl2 or CoCl2, 48 hours, compared to ZNA alone",no significant change in cell viability
same,cell viability,"[1]; 30 μM ZNA with ZnSO4, 48 hours",decrease in cell viability
same,cell viability,[2],no significant change in cell viability
same,LC3 protein,[3]; MCF-7 and MDA-MB-231 cells,significant increases were not observed
same,LC3 protein,[3]; T47D cells,apparent increase in LC3 protein
same,LC3 level,"[3]; ZNA alone, 48 and 72 hours",increase in LC3
same,cell viability,[4],decreased cell viability
same,EdU incorporation,"[5]; ZNA alone, MCF-7 and T47D cells",statistically significant decrease in EdU incorporation
same,proliferation (EdU),"[5]; ZNA/ZnSO4, 6 hours",complete block in proliferation
same,cell death (propidium iodide uptake),"[6]; 30 μM ZNA with CuSO4 or 30 μM ZnSO4, 24 hours",induced cell death in cancer cells more rapidly than with ZNA alone
same,cell death (propidium iodide),"[6]; 30 μM ZNA with ZnSO4, 24 hours",significantly higher levels of cell death than with ZNA alone
same,cell death (propidium iodide),"[6]; ZNA and ZnSO4 with RIP1 inhibitor necrostatin-1, 24 hours",no rescue in cell death
same,ZNA-induced cell death (propidium iodide),[6]; MCF-7 and MDA-MB-231 cells,did not significantly affect cell death
same,ZNA-induced cell death (propidium iodide),[6]; T47D cells,decreased ZNA-induced cell death
same,intracellular zinc (FluoZin-3),"[7]; 30 μM ZNA alone, up to 48 hours, T47D and MDA-MB-231",only modest increases in intracellular zinc
same,increase in FluoZin-3 fluorescence,"[7]; 30 μM ZNA with 30 μM ZnSO4, three hours",≥ 34 fold
same,intracellular Zn^2+ (FluoZin-3),"[7]; ZNA with Actinomycin D (ACTD), 24 hours, compared to ZNA alone",statistically significant increases in intracellular Zn^2+
same,DCF fluorescence,"[8]; 30 μM ZNA alone, up to 48 hours",slight increase in DCF fluorescence
same,H2DCFDA oxidation,"[8]; 30 μM ZNA with 30 μM ZnSO4, three cancer cell lines, compared to controls",statistically significant decrease in H2DCFDA oxidation
same,"caspase 3/7, 8, or 9 activity","[9]; 30 μM ZNA alone or with 30 μM ZnSO4, 6 hours","no caspase 3/7, 8, or 9 activity was observed"
same,"caspase 3/7, 8 or 9 activation","[9]; 30 μM ZNA, 72 hours","did not activate caspases 3/7, 8 or 9"
